Consider 81 compounds from PubChem BioAssay AID1346428 (National Center for Advancing Translational Sciences (NCATS), 2018).

The structures appear in SMILES notation. In all, about 48,000 compounds went through this assay and about 1,200 (2.5%) were called active. Inconclusive results (about 2%) are left out.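 How the source made its calls: active means activation of at least 60% and not above a set upper limit (about 1 call in 100 departs from these limits); inconclusive means activation of 40% to 60%, or above that upper limit; inactive means activation under 40%.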 This is one part of the list.

UniProt O75388, sequence (O75388 whole entry, looked up): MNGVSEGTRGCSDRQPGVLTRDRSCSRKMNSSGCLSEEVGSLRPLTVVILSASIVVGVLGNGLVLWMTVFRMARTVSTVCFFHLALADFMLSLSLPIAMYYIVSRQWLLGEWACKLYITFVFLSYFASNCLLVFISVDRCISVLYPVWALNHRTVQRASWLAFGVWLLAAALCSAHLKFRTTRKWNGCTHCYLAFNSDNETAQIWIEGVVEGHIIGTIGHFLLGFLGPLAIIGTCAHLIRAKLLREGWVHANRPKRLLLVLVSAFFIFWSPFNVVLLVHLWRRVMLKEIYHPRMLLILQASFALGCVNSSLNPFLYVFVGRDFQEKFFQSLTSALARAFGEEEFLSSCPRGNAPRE

The target in the assay is Probable G-protein coupled receptor 32 (Homo sapiens) (UniProt O75388). The experiment in a line: qHTS for Agonists of Human Resolvin D1 Receptor DRV1. Further: 0% is about no effect. Particulars: CHO-K1 GPR32 beta-arrestin PathHunter luminescence, 90 min; at 76.9 µM; stronger effect = higher value; zero percent set by DMSO-only wells. In a few lines:
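Luminescent readout of beta-Gal complementation quantifies ligand-induced beta-arrestin association with GPR32 in CHO-K1 cells; 90 min compound incubation at 37 °C, detection 1 h at room temperature.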
Background: Quantitative high-throughput screening tests each substance at several concentrations.
In the case of `CCc1ccccc1NC(=O)c1ccc(CN2C(=O)CCn3nc(C)cc32)cc1`, the activation was inactive: -14.2%.

`COCCNC(=O)C1CCN(c2nc3ccccc3nc2C(F)(F)F)CC1`: the activation was inactive: -18.4%.

Regarding `Cc1ccccc1NC(=O)CSc1cn(CC(=O)N(C(C)C)C(C)C)c2ccccc12`, the activation is inactive: -12.8%. Turning to `COc1cc2c(cc1OC)C(COc1ccc3c(C)cc(=O)oc3c1)N(C(=O)c1ccccc1F)CC2` (stereo unspecified), the activation is inactive: -1.19%. As to `COc1cc(C(=O)N2CCOCC2)cc(OC)c1OC`, the activation was inactive: 2.31%. In the case of `COc1cc2c(cc1OC)n(Cc1ccc([N+](=O)[O-])cc1)c(=O)n1nc(-c3ccccc3)nc21`, the activation was inactive: -5.11%.

For the compound `Cc1cccc(NC(=O)Cn2c(=O)ccc3cc(S(=O)(=O)N4CCCC4)ccc32)c1C`, the activation is inactive: 22.5%.

As to `CC(=O)c1ccc(NC(=O)C2CCC(CNS(=O)(=O)c3cccs3)CC2)cc1` (stereo unspecified), the activation was active: 108%. As for `COc1cccc(Cc2nc3ccccc3nc2SCC(=O)NCc2ccc(C)cc2)c1`, the activation was inactive: -10.8%. Take `COc1ccc(CCNC(=O)c2ccc3c(c2)nc2n3CCC(C)C2)cc1OC` (stereo unspecified): the activation is inactive: -8.9%. On to `CCOC(=O)c1noc2nc(C)n(Cc3cccc(C#N)c3)c(=O)c12`, for which the activation was inactive: -19.2%. Take `CNCC[C@H](Oc1ccc(C(F)(F)F)cc1)c1ccccc1`: the activation is inactive: -3.21%. For the compound `CCOc1ccc(NC(=O)N2CCN(Cc3cc(=O)n4nc(-c5ccc(OC)cc5)sc4n3)CC2)cc1`, the activation was inactive: -2.83%. Regarding `COc1ccc(N2C(=O)CS(=O)(=O)C23C(=O)N(Cc2ccc(C)cc2)c2ccccc23)cc1Cl` (stereo unspecified), the activation is inactive: -30.7%. As to `O=C(NCc1ccc(F)cc1)c1ccc2c(c1)nnn2C1CCCC1`, the activation was inactive: -3.23%. For `CCOC(=O)c1[nH]c(C)c(CCC(=O)NCc2ccc(OC)cc2)c1C`, the activation was inactive: -12.6%. To `Cc1c(NC(=O)c2cc(-c3ccc(Cl)cc3)on2)c(=O)n(-c2ccccc2)n1C` belongs inactive: 17.7%. The same measure for `Cc1ccccc1-c1nnc(SCC(=O)N(C)C2CCCCC2)o1`: inactive: -19.7%; for `CCNC(=O)c1ccc(CSc2nc3ccncc3n2Cc2ccc(F)cc2)cc1`: inactive: -1.42%; for `CCN(C(=O)Cn1cnc2onc(-c3ccc(F)cc3)c2c1=O)c1cc(C)ccc1C`: inactive: 2.64%.

For `CO[C@]12C[C@@H](COC(=O)c3cncc(Br)c3)CN(C)[C@@H]1Cc1cn(C)c3cccc2c13`, the activation was inactive: 0.983%. Turning to `CCn1c(C(=O)NCc2cc(Br)ccc2OC)cc2oc3ccccc3c21`, the activation is inactive: -18.9%. On to `Cc1cccc(CCNC(=O)CN(c2ccc(C(C)C)cc2)S(=O)(=O)c2c(C)nn(C)c2C)c1`, for which the activation was inactive: -19.2%. `Cc1ccc(NC(=O)N2CCN(c3cc(-c4noc(C)n4)ccc3C)CC2)c(C)c1`: the activation was inactive: -0.816%.

For the compound `CCCCC(=O)O[C@]1(C(=O)CO)[C@@H](C)C[C@H]2[C@@H]3CCC4=CC(=O)C=C[C@]4(C)[C@@]3(F)[C@@H](O)C[C@@]21C`, the activation was inactive: 15.3%. `CCCCNS(=O)(=O)c1ccc(C)c(-c2nnc3c4ccccc4c(C)nn23)c1`: the activation was inactive: -13.5%. As for `Cc1ccc(CN2CCN(C3CCN(C(=O)Nc4ccc(C)cc4Cl)CC3)C(=O)C2=O)cc1`, the activation was inactive: -17.5%. The same measure for `CC(=O)N1CCc2cc(CNC(=O)c3ccccc3Br)ccc21`: inactive: -7.43%. To `CNS(=O)(=O)c1cn(CC(=O)Nc2ccc(C(C)=O)cc2)cc1S(=O)(=O)NC` belongs inactive: -4.9%. The same measure for `CC(=O)N1CCc2cc(S(=O)(=O)NC(Cc3ccccc3)C(=O)NCc3ccc(C)cc3)ccc21` (stereo unspecified): inactive: 13%. For `O=C(NCc1cccs1)C1CCN(C(=O)N2CCOc3ccc(Cl)cc32)CC1`, the activation is inactive: -2.11%. As to `O=C(Nc1ccc(Br)cc1)c1ccc(F)c(S(=O)(=O)N2CCc3ccccc32)c1`, the activation is inactive: -9.21%. On to `COc1ccc(CCNC(=O)C2CCN(S(=O)(=O)c3c(C)noc3/C=C/c3ccc(C)cc3)CC2)cc1OC`, for which the activation was inactive: 3.61%. On to `Cc1ccc(S(=O)(=O)C(CNC(=O)C(=O)NCc2ccccc2C)c2cccs2)cc1` (stereo unspecified), for which the activation is inactive: -3.32%. To `CCOC(=O)c1ccc(NC(=O)CCn2ccc(C)n2)cc1` belongs inactive: -4.17%; to `CC(C)OC(=O)c1c(-c2ccccc2)c(-c2ccccc2)nn(C)c1=O`, inactive: -15%; to `CC(C)CCN(C(=O)Nc1ccccc1)C(C)c1cccs1` (stereo unspecified), inactive: -16.6%. The same measure for `Cc1cc(C)c(Cn2c(C3CC(=O)N(c4ccc(F)cc4)C3)nc3ccccc32)c(C)c1` (stereo unspecified): inactive: -4.11%; for `COc1cccc(NC(=O)CSc2nc(=O)n(Cc3ccncc3)c3c2CCC3)c1`: inactive: -14.1%; for `CCCN(CCC)CC(O)Cn1cc(/C=C/C(=O)c2ccc(Br)cc2)c2ccccc21` (stereo unspecified): inactive: 6.73%. With `CCn1cc(C(=O)N(C)c2ccc(C(C)C)cc2)c2cc(OC)c(OC)cc2c1=O`, the activation is inactive: 19.5%. `Cc1ccc(CNC(=O)CCNS(=O)(=O)c2cccc3nsnc23)cc1`: the activation was inactive: 11.2%.

Take `CCc1ccc(NC(=O)Cn2c(=O)n(-c3ccc(OC)cc3)c(=O)c3ccc(C(=O)NCc4ccc(C)cc4)cc32)cc1`: the activation is inactive: -9.34%. As to `Cc1ccc2nc(NC(=O)CSc3ncc(C(=O)Nc4ccc(F)cc4)c(=O)n3C)sc2c1`, the activation was inactive: -12.5%. Regarding `Cc1c(CCC(=O)N2CCCCC2)c(=O)oc2cc3occ(C(C)(C)C)c3cc12`, the activation was inactive: -4.41%. Consider `Cc1ccc(Cc2nc3ccccc3nc2SCC(=O)N2CCN(c3ccc(F)cc3)CC2)cc1`, for which the activation was inactive: -24.1%. Take `CCOC(=O)c1noc2nc(C)n(Cc3cccc([N+](=O)[O-])c3)c(=O)c12`: the activation is inactive: -8.74%. In the case of `COc1ccc(CNC(=O)Cc2ccc(NC(=O)N3CCSc4ncccc43)cc2)cc1`, the activation is inactive: 2.17%. The same measure for `COCCn1cc(C(=O)NCCCOC(C)C)c2c3ccccc3n(C)c2c1=O`: inactive: -2.07%. In the case of `CCc1ccc(-n2nc(C)c3c(C)cc(=O)n(CC(=O)Nc4ccc(F)cc4C)c32)cc1`, the activation was inactive: 4.73%. Regarding `CCc1nn(CC(=O)NC(C)CCc2ccccc2)c(=O)c2cc3c(OC)cccc3n12` (stereo unspecified), the activation was inactive: -24.8%. Take `Cc1nnc(SCC(=O)NCc2ccccc2Cl)c2nn(-c3ccccc3)c(C)c12`: the activation is inactive: -9.9%. Take `Cc1ccc2c(CN3CCN(C(=O)c4ccc(Br)cc4)CC3)cc(=O)oc2c1`: the activation is inactive: -8.11%. As to `CCOC(=O)Cn1c(=O)n(C2CCCCC2)c2nc(-c3ccc(C(C)C)cc3)nc(C(N)=O)c21`, the activation is inactive: -11.6%. Turning to `CCC(C(=O)N1CCN(c2cc(C)ccc2C)CC1)n1nc(C)n2c(cc3occc32)c1=O` (stereo unspecified), the activation was inactive: 5.24%. `Cc1ccc(S(=O)(=O)N2CCc3cc(C(=O)Nc4c(F)cccc4F)ccc32)cc1`: the activation is inactive: -4.57%. The same measure for `CCOc1ccc(NC(=O)C2CCCN(c3nnc(C)c4c(C)n(-c5ccccc5)nc34)C2)cc1` (stereo unspecified): inactive: -6.78%; for `Cn1c(=O)c2c(nc(N3CCOCC3)n2Cc2ccc(Br)cc2)n(C)c1=O`: inactive: -2.25%.

Turning to `COc1ccccc1NC(=O)CSC1=Nc2ccccc2C2=NC(CC(=O)NCc3ccccc3)C(=O)N12` (stereo unspecified), the activation is inactive: -10%. For the compound `COc1ccc(NC(=O)C2CCN(c3ccc(Sc4ccc(C)cc4)nn3)CC2)c(OC)c1`, the activation is inactive: 39.4%. Take `Cc1ccc(CN2CCN(C3CCNCC3)C(=O)C2=O)cc1`: the activation was inactive: -11.1%. For the compound `O=C(CSc1ccc(-c2ccccn2)nn1)Nc1ccc(F)cc1F`, the activation was inactive: -4.73%. The same measure for `O=C1c2ccccc2C(=O)c2c(NCCc3ccc(O)cc3)ccc(NCCc3ccc(O)cc3)c21`: inactive: -61.2%; for `CCOc1ccc2nc(N3CCCC(C(=O)Nc4cc(Cl)c(OC)cc4OC)C3)sc2c1` (stereo unspecified): inactive: -11%. Take `Cc1c(C(=O)Nc2cccc(-c3nc4ccccc4s3)c2)oc2ccccc12`: the activation was inactive: 2.9%.

Take `CCCCCCSc1nnc2c(n1)OC(C)Nc1ccc(Br)cc1-2` (stereo unspecified): the activation was inactive: 42.4%.

For `CCOC(=O)c1ccccc1NC(=O)COc1ccccc1-c1nnc(-c2ccccc2)o1`, the activation is inactive: -8.44%. For the compound `CSc1nn(Cc2cccc(C)c2)c(N)c1S(=O)(=O)c1ccccc1`, the activation was inactive: 1.25%. Take `COc1ccc(CNC(=O)c2ccc(NC(=O)N3CCSc4ccccc43)cc2)cc1`: the activation is inactive: -24%. Take `CCc1ccc(CNCc2c(C(=O)O)n(Cc3ccc(C)cc3)c3cc(C)ccc23)cc1`: the activation was inactive: 32.6%. With `COc1cc(NC(=O)C(CC(C)C)NS(=O)(=O)c2ccc3c(c2)CCN3C(C)=O)cc(OC)c1` (stereo unspecified), the activation is inactive: -12.5%. Consider `COc1cc2c(=O)n(CCC(=O)NCC3CCCO3)c(=O)n(CC(=O)Nc3ccc(C)cc3C)c2cc1OC` (stereo unspecified), for which the activation is inactive: -6.3%.

As to `Cc1ccccc1Cn1c2ccccc2c2cnn(CC(=O)NC3CCC(C)CC3)c(=O)c21` (stereo unspecified), the activation is inactive: -13.6%. In the case of `Cc1ccc2nc(-c3ccc(NC(=O)c4ccc(S(C)(=O)=O)cc4)cc3)sc2c1`, the activation is inactive: 0.0922%.

For the compound `CCOC(=O)N1CCC2(CC1)OC(=O)C(C)=C2C(=O)NCc1cccc(F)c1`, the activation was inactive: -4.62%. Take `CCCN1CCN(c2ncnc3sc(C(=O)Nc4c(C)cc(C)cc4C)c(C)c23)CC1`: the activation is inactive: -12.7%. `Cc1cccc(NC(=O)CN2C(=O)c3cccc4cccc2c34)c1C`: the activation is inactive: 5.1%. With `CCc1ccc(C(=O)c2cn(CC(=O)Nc3ccc(OC)cc3)c3cc4c(cc3c2=O)OCO4)cc1`, the activation was inactive: 26.6%. The same measure for `CCC1CN(S(=O)(=O)c2cc(-c3onc(C)c3C)ccc2C)c2cc(Cl)ccc2O1` (stereo unspecified): inactive: -28.9%; for `NC(=O)C1(N2CCCCC2)CCN(C(=O)Nc2ccc(F)cc2F)CC1`: inactive: -7.47%. Take `NS(=O)(=O)c1ccc(NC(=O)C(=O)Nc2ccc3nc4n(c(=O)c3c2)CCCCC4)cc1`: the activation was inactive: -0.473%.
